For the data set, the system named is ATP. Put plainly: switch fluorescence ratio, 500 uM ATP over buffer (Cy3 cluster intensity, sum of 5 cycles each) (fold (ratio)); higher = stronger signal-on switching upon ATP binding; sequences stand for … in TCGTCGGCAGCGTCAGATGTGTATAAGAGACAGTTTTTTTTTTTTTTTTTTTTTTTTT…TC. The note with it: aptamer strand: ATP DNA aptamer (quencher-CACCTGGGGGAGTATTGCGGAGGAAGG + anchor), 100 nM annealed; ATP concentration: 500 uM; one replicate. An outline of the steps: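 Exposure to 500 uM ATP lasted 15 min at 22 °C before imaging, and a selection-buffer image was taken beforehand, for Cy3-labelled switching-strand clusters on a modified Illumina MiSeq flow-cell annealed to 100 nM quencher-labelled ATP aptamer. Five buffer/ATP cycles were run with NaOH stripping and re-annealing between them. The fluorescence ratio per cluster is summed target-cycle over summed buffer-cycle Cy3 intensity, averaged per switch-domain sequence. Clusters outside 100-1000 RFU were excluded.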

Values marked as one replicate rest on one cluster of the flow cell; about a third of the high ones do not repeat.

With GGTGCAGGAT, the switch fluorescence ratio came to 1.

ATATTAAACT: the switch fluorescence ratio was found to be 1.02.

On to ATTATATTTC, for which the switch fluorescence ratio was found to be 1.06.

For TCGTTCGGTC, the switch fluorescence ratio worked out at 1.71.

For the sequence TGCCCGGGTA, the switch fluorescence ratio was 1.04.

On to GGTCAAAGTT, for which the switch fluorescence ratio was 1.

On to ATTTTACTGT, for which the switch fluorescence ratio was determined as 1.03.

With GGGCACAAAA, the switch fluorescence ratio was 1.04.

With GGCTGCTACG, the switch fluorescence ratio was found to be 1.01.

With TGTATTCAAA, the switch fluorescence ratio was found to be 0.991.

TGGGGTTGT: the switch fluorescence ratio turned out to be 0.964.

As for AGAAATTTAA, the switch fluorescence ratio was 1.19.

For TTTCTCGGCG, the switch fluorescence ratio was 1.05.

As for CTAAGGTCGT, the switch fluorescence ratio is 1.02.

CAGGTATAAT: the switch fluorescence ratio turned out to be 1.

Turning to GCTATTGAAC, the switch fluorescence ratio came to 0.991.

Regarding ATTTTCGGAA, the switch fluorescence ratio is 1.01.

In the case of ACATTTAACG, the switch fluorescence ratio is 1.04.

With AACGAGGACT, the switch fluorescence ratio worked out at 1.04.

For the sequence TTCGGAGCGC, the switch fluorescence ratio is 0.999.

As for AATTGAGCAG, the switch fluorescence ratio is 0.97.

Turning to TTGAATTATA, the switch fluorescence ratio was determined as 0.993.

For the sequence GGGTTAGTAT, the switch fluorescence ratio was 0.951.

As for ACCCAAGTGG, the switch fluorescence ratio came to 1.02.

As to ACCTTATTTT, the switch fluorescence ratio is 1.02.

With CAAGACTTAG, the switch fluorescence ratio was found to be 1.04.

ATGTAGCAGT: the switch fluorescence ratio came to 1.7.

Consider TCGCTCGGCT, for which the switch fluorescence ratio was determined as 0.922.

On to GATATCTGCC, for which the switch fluorescence ratio came out at 1.

With CGGCAGGAAC, the switch fluorescence ratio was determined as 1.07.

With GGAGTCAGTG, the switch fluorescence ratio worked out at 1.01.

GTGAGCACAA: the switch fluorescence ratio came to 1.08.

TTAGGCAGCG: the switch fluorescence ratio came out at 0.982.

Regarding GCGTGGCAG, the switch fluorescence ratio was found to be 1.05.

Consider TCTAGCTCCG, for which the switch fluorescence ratio was determined as 1.04.

Regarding TGGTGTTACG, the switch fluorescence ratio was 1.

Consider CCGGAAGTGG, for which the switch fluorescence ratio amounted to 1.14.

CGTGTTCTTT: the switch fluorescence ratio was 1.01.

Consider CCTAAGAGTC, for which the switch fluorescence ratio worked out at 1.02.

Take GGAATGCAGA: the switch fluorescence ratio was 0.942.

For GGTCTGCAGT, the switch fluorescence ratio came to 1.04.

With AAAAAAACCG, the switch fluorescence ratio is 1.18.

TGAGGTTCCA: the switch fluorescence ratio was 1.01.

On to CAGATTCCG, for which the switch fluorescence ratio came out at 1.03.

On to GTAATAGTAG, for which the switch fluorescence ratio worked out at 0.995.

On to AGGCTGCCTG, for which the switch fluorescence ratio was 1.01.

In the case of ACCGATATTG, the switch fluorescence ratio stood at 1.02.

Take ACATCAGGGA: the switch fluorescence ratio is 1.02.

Turning to CAACCGATCT, the switch fluorescence ratio turned out to be 1.03.

On to GGCACGATCT, for which the switch fluorescence ratio is 0.93.

With GACAATGATC, the switch fluorescence ratio worked out at 1.09.

Consider CATGACTAGG, for which the switch fluorescence ratio is 0.999.

For the sequence GGCTAACTAG, the switch fluorescence ratio is 0.97.

AGTGCCTAGT: the switch fluorescence ratio amounted to 0.976.

For the sequence TCGAGCGTA, the switch fluorescence ratio was 1.01.

Turning to TTGGTTATTA, the switch fluorescence ratio is 0.997.

Take GTCAACTGTA: the switch fluorescence ratio was 0.979.

For GGGTCTAACA, the switch fluorescence ratio was determined as 0.973.

In the case of TGATAAGCGG, the switch fluorescence ratio was 1.01.

As to AATATTGGAC, the switch fluorescence ratio came out at 0.997.

Take GGTTTGTTTT: the switch fluorescence ratio amounted to 0.989.

As for CTCGTGGATG, the switch fluorescence ratio is 0.98.

Take TGACCAAAGC: the switch fluorescence ratio stood at 1.45.

For GCGCTACATA, the switch fluorescence ratio is 1.04.

In the case of CTGCTTAACA, the switch fluorescence ratio was found to be 1.03.

In the case of CTAACTTGTA, the switch fluorescence ratio came out at 1.01.

As for TCTTGGCCGG, the switch fluorescence ratio came out at 1.01.

Turning to TCGGAAGG, the switch fluorescence ratio came out at 0.956.

With GTTATTTGAG, the switch fluorescence ratio was determined as 0.968.

In the case of TGCGCCTAGG, the switch fluorescence ratio turned out to be 0.951.

With TAAATTGCAG, the switch fluorescence ratio was found to be 1.01.

As for AAAGTGGCAA, the switch fluorescence ratio is 1.04.

For TTGGTTACGC, the switch fluorescence ratio worked out at 1.04.

Turning to GACAACTCTC, the switch fluorescence ratio is 1.04.

With GCTTGTAAA, the switch fluorescence ratio turned out to be 0.975.

Consider CATGCGGGAC, for which the switch fluorescence ratio was 1.65.

In the case of CGTCGTCAGG, the switch fluorescence ratio turned out to be 0.979.

Turning to TGCATCTTGC, the switch fluorescence ratio came out at 1.06.

GAATCTAGCT: the switch fluorescence ratio worked out at 1.01.

GAAGGATGTT: the switch fluorescence ratio stood at 0.971.

For ACTGCGGCTC, the switch fluorescence ratio was found to be 1.09.

Turning to GAACCCGCTA, the switch fluorescence ratio was determined as 2.39.

For GGTGTAGATC, the switch fluorescence ratio worked out at 1.06.

Turning to GCGAGCATAC, the switch fluorescence ratio came out at 3.13.

Take TGCGCTCCGC: the switch fluorescence ratio was 2.61.

As for TGCTGGGACG, the switch fluorescence ratio was determined as 1.14.

Consider GCTAATCTGG, for which the switch fluorescence ratio is 1.03.

Regarding CGAAGCATAA, the switch fluorescence ratio came to 2.89.

Take CTTATGCAGG: the switch fluorescence ratio came to 0.983.

Regarding AAGATACTTT, the switch fluorescence ratio worked out at 1.04.

Regarding CATGATGCAG, the switch fluorescence ratio amounted to 1.01.

As to GCGGGTGCT, the switch fluorescence ratio was 0.99.

With TTGGGGCGAG, the switch fluorescence ratio amounted to 1.01.

Turning to TTGGCGGCGT, the switch fluorescence ratio stood at 0.99.

Consider AGGCACGTTA, for which the switch fluorescence ratio is 1.06.

With ACGCTAGTTG, the switch fluorescence ratio is 0.999.

Turning to GGATTGTGTA, the switch fluorescence ratio turned out to be 1.

Turning to GCGCAACTCT, the switch fluorescence ratio came out at 1.18.

On to ATACTAATC, for which the switch fluorescence ratio was 1.03.

Consider CGTCCAGCTG, for which the switch fluorescence ratio is 1.03.

Take ACATACTTTC: the switch fluorescence ratio is 1.22.

Regarding GATATGGTCA, the switch fluorescence ratio is 0.988.

In the case of GATACTTGG, the switch fluorescence ratio worked out at 0.986.

As to GCTGGTATAC, the switch fluorescence ratio came out at 1.33.

As for AAAAAATTAC, the switch fluorescence ratio was 1.03.

AGGATTGGCA: the switch fluorescence ratio came to 0.931.

Turning to GAGAACATCG, the switch fluorescence ratio was found to be 0.936.

As for ACTGGTCCTG, the switch fluorescence ratio turned out to be 0.948.

For CGGGAAGCCT, the switch fluorescence ratio was 1.05.

Turning to ACTGGCCCTT, the switch fluorescence ratio came to 0.993.

In the case of GGCCATGAAA, the switch fluorescence ratio is 1.01.

On to TGTCAGCCG, for which the switch fluorescence ratio came to 0.88.

As for GTCTACCA, the switch fluorescence ratio stood at 1.06.

Regarding AATTTTATAG, the switch fluorescence ratio worked out at 0.99.

With CGTTTCTGTT, the switch fluorescence ratio amounted to 0.932.

With AACAGACCTG, the switch fluorescence ratio turned out to be 0.991.

For the sequence TGATCTGAGA, the switch fluorescence ratio worked out at 0.963.

Regarding GCACATATAC, the switch fluorescence ratio amounted to 1.67.

For CGAATTTGTT, the switch fluorescence ratio is 0.978.

Take ATTGTCCCGC: the switch fluorescence ratio is 1.06.

The record behind these values is the supplement of paper PMC10126150.
